Laboratory results as given in PMC12040169 (PLOS Biology, 2025).
The other results are listed elsewhere or left out.

The compounds below were run on T1, C. trachomatis L2/434/Bu expressing GFP (CTL2-GFP). Settings: total inclusion area; 28.5 h, 10 µM; inhibitor.
T1 construct: L2/434/Bu GFP intracellular growth in HeLa cells
Set-up: species or system HeLa; C. trachomatis total inclusion area by high-content imaging, normalised to DMSO
How it was run: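 Host cell viability was gauged from Hoechst-stained nuclei counts, while chlamydial growth was taken from total inclusion area and inclusion number per well. Cells were fixed and imaged by high-content microscopy once bulk GFP and resorufin fluorescence had been measured.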
`O=C(O)C1C2CCC(O2)C1C(=O)Nc1ccc(S(=O)(=O)N2CCc3ccccc32)cc1` (stereo not shown) [CBK268137] was tested, and the “% of control remaining” value was 110.057. In the case of `Cc1cc(C)nc(Nc2nc3ccccc3[nH]2)n1` [CBK263539], the “% of control remaining” value is reported as 105.692. In the case of `O=C(O)c1ccc(C(=O)c2c3c(=O)n(-c4ccccc4C(=O)O)c(=O)c3cc3c(=O)n(-c4ccccc4C(=O)O)c(=O)c23)cc1` [CBK261183], the “% of control remaining” value is reported as 80.8936. For `COCCNC(=O)c1ccc(-c2cccc(Cl)c2Cl)nc1N(C)C` [CBK106057], the “% of control remaining” value was 79.9287. With `Clc1cccc(Nc2cncc(-c3cccc4ccccc34)n2)c1` [CBK065764] the “% of control remaining” value was 102.74. With `COc1ccc2nc(N/C(N)=N/C(=O)COc3ccc(Cl)cc3)nc(C)c2c1` [CBK263924] the “% of control remaining” value was 51.8719. `Cc1csc(S(=O)(=O)Cc2nnc(C)n2C2CC2)n1` [CBK305494] was tested, and the “% of control remaining” value was 23.5622. With `COc1cc(NC(=O)N(CCC#N)C2CCCCC2)cc(OC)c1OC` [CBK156380] the “% of control remaining” value was 101.046. In the case of `Cc1cc2ncc3c(n2n1)NC(c1ccc(Cl)cc1Cl)NC3=O` (stereo not shown) [CBK291167], the “% of control remaining” value is reported as 104.164. With `Fc1ccc(CN(Cc2ccco2)C2CCN(c3ccc4c(c3)OCO4)CC2)cc1` [CBK286197] the “% of control remaining” value was 85.5748. In the case of `COCC(=O)N[C@H]1C[C@H]2C(=O)Nc3ccc(-c4ccsc4)cc3C(=O)N2C1` [CBK289360], the “% of control remaining” value is reported as 90.8379. `COc1ccc(C(C)C)cc1-c1nccnc1NCc1ccc2c(c1)OCO2` [CBK036683] was tested, and the “% of control remaining” value was 75.583. In the case of `CCC1CCCCN1C(=O)c1ccc(C(C)(C)C)cc1` (stereo not shown) [CBK076644], the “% of control remaining” value is reported as 87.9858. In the case of `Cn1c(CN2CCN(c3ccc(C#N)cn3)CC2)nnc1C1CC1` [CBK304781], the “% of control remaining” value is reported as 43.6689. `COc1c(C)cc(S(=O)(=O)NCCN2CCOCC2)c(C)c1C` [CBK269893] was tested, and the “% of control remaining” value was 87.1101. In the case of `Cc1nc(C)n(CCC(=O)NC(C)c2cccs2)n1` (stereo not shown) [CBK282224], the “% of control remaining” value is reported as 90.9869. `CCN(Cc1ccncc1)C(=O)NCc1cnc(C)cn1` [CBK155128] was tested, and the “% of control remaining” value was 90.3862. With `Cc1cccc(CC(=O)N2CCCC2c2n[nH]cc2-c2ccncc2)c1` (stereo not shown) [CBK283447] the “% of control remaining” value was 102.044. `O=C(c1cn2cc(-c3cccs3)n(CC3CC3)c(=O)c2n1)N1CCCC1` [CBK306756] was tested, and the “% of control remaining” value was 51.6573. With `O=C(NC(C(=O)N/N=C/c1ccccc1O)c1n[nH]c(=O)c2ccccc12)c1ccccc1` (stereo not shown) [CBK261117] the “% of control remaining” value was 89.4326. With `Cc1cc(C)n2nc(S(N)(=O)=O)c(C#N)c2n1` [CBK025767] the “% of control remaining” value was 91.9216. `CCCN1CCC(NC(=O)Cn2c(C3CC3)nc3ccccc32)CC1` [CBK304917] was tested, and the “% of control remaining” value was 49.417.
